PubChem BioAssay AID686979 (National Center for Advancing Translational Sciences (NCATS), 2013)
Where “and” joins values, the source holds several entries; their conditions need not be identical. Identical values can stand only once. Hit rate of the full screen: of about 420,000 compounds, about 50,000 (12%) were called active. This list was built around the results that the source calls inconclusive (neither active nor inactive); the mix of calls is not that of the screen. Calls follow the shape of the dose curve; as a rule, active = well fitted inhibition curve with a large enough effect; inconclusive = small, poorly fitted or top-dose-only effect; inactive = flat fitted curve, though single readings scatter. A potency beside an inconclusive call is a rough fit, not a confirmed value.

assay: qHTS for Inhibitors of human tyrosyl-DNA phosphodiesterase 1 (TDP1): qHTS in cells in presence of CPT; details: chicken DT40 Tdp1-/-;hTDP1 cells + 20 nM CPT, ATP luminescence, 48 h; activity change, negative = growth inhibition: at 46.2 µM (top of the series) unless noted; also: nearly all actives have a fitted effect of over 55% in size
Method in brief: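 Chicken DT40 Tdp1-/- cells stably complemented with human TDP1 were seeded at 400 cells/well in medium containing 20 nM camptothecin, exposed to pin-transferred compounds, and grown at 37 °C for at least 48 hr. Viability was read as ATP luminescence.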
% is scaled to controls: 0 for no effect and ±100 for the full control effect; potency is read from the fitted curve at half-maximal effect; tags tell the direction and shape of the fitted curve.

Compound	Potency	activity change, negative = growth inhibition
O=C(CN1CCN(c2ccc(Cl)cc2)CC1)NCc1ccccc1	inconclusive: 29.1 µM [inhibitor, single point]	
OC[C@@H]1CN(Cc2ccccc2)C[C@H](n2cnc3c(N4CCN(c5ccccc5)CC4)ncnc32)O1	inconclusive: 29.1 µM [inhibitor, single point]	
CC(=O)C1C(=O)c2c(cccc2[N+](=O)[O-])C1=Nc1ccc(S(N)(=O)=O)cc1 (centres undefined)	active: 18.4 µM	
COCCCN(C(=S)Nc1c(C)cc(C)cc1C)C(C)c1ccccn1 (centres undefined)	inconclusive: 29.1 µM [inhibitor, partial curve, poor fit]	
O=C(COC(=O)c1ccc(C(F)(F)F)cc1)NC(=O)NC1CCCC1		inactive: -18.8%
COc1ccc(-c2nn(-c3ccccc3)cc2/C=N/O)cc1OC	inconclusive: 29.1 µM [inhibitor, single point]	
CCOC(=O)c1c(CN2CCC(C)CC2)oc2ccc(OC)cc12	active: 23.1 µM	
Cc1ccc2[nH]c(O)c(N=Nc3ccccc3C)c2c1	inconclusive: 29.1 µM [inhibitor, single point]	
CCc1c(C)sc2nc3c(C(=O)N4CCOCC4)cc(C(=O)c4ccccc4O)cn3c(=O)c12	active: 23.1 µM	
CCOC(=O)C1CCN(C(=O)c2cccc(S(=O)(=O)N3CCCc4ccccc43)c2)CC1	inconclusive: 29.1 µM [inhibitor, single point]	
Cc1ccc(/C=C2\CC(C)CC3=C2NC(=S)NC3c2ccc(C)cc2)cc1 (centres undefined)	inconclusive: 16.4 µM [inhibitor, single point]	
COc1ccc(/C=N/Nc2cc(C)nc3ccccc23)cc1	inconclusive: 13 µM [inhibitor, single point]	
COc1cc(CCN(C(=O)c2cccc(S(C)(=O)=O)c2)C(CCc2ccccc2)c2nc3ccccc3[nH]2)cc(OC)c1 (centres undefined)	inconclusive: 29.1 µM [inhibitor, single point]	
O=[N+]([O-])c1ccc(C=Nc2ccccc2)cc1	inconclusive: 16.4 µM [inhibitor, partial curve, poor fit]	
COc1cc(NCCCn2cnc3c(OCc4ccccc4)ncnc32)cc(OC)c1OC	inconclusive: 23.1 µM [inhibitor, single point]	
Cc1ccc(S(=O)(=O)N(C)C[C@@H]2Oc3ncc(C#CCC(C)C)cc3C(=O)N([C@H](C)CO)C[C@H]2C)cc1	inconclusive: 20.6 µM [inhibitor, single point]	
CCOC(=O)c1oc2c(c1C)-c1nn(Cc3ccc(Cl)cc3)cc1CC2	active: 16.4 µM	
Cc1ccc(Nc2nc(-c3cccs3)cs2)nc1	inconclusive: 25.9 µM [inhibitor, single point]	
Cc1c(C(=O)N(Cc2ccccc2Cl)C2CCS(=O)(=O)C2)oc2ccccc12 (centres undefined)	inconclusive: 29.1 µM [inhibitor, single point]	
CCOC(=O)C1=CN(Cc2cccc(F)c2)S(=O)(=O)NC1CCc1ccccc1 (centres undefined)	inconclusive: 23.1 µM [inhibitor, partial curve, poor fit]	
Cc1cccc(-n2ncc(C#N)c2-n2cccc2)c1	inconclusive: 1.26 µM [inhibitor, full curve]	
CC(=O)c1c(C(C)=O)c(C)n(NC(=O)c2ccc(Cl)cc2)c1C	inconclusive: 8.2 µM [inhibitor, partial curve]	
COc1ccccc1-c1ccc2ncnc(N3CCOCC3)c2c1	active: 18.4 µM	

Compound	Potency	activity change, negative = growth inhibition
Cc1nn(Cc2ccccc2Cl)c(C)c1NC(=O)NC12CC3CC(CC(C3)C1)C2	inconclusive: 23.1 µM [inhibitor, single point]	
NC(=O)CSc1nc2ccc([N+](=O)[O-])cc2[nH]1		inactive: 14.7%
C[C@@H]1CN([C@H](C)CO)C(=O)CCCn2cc(nn2)CO[C@H]1CN(C)S(C)(=O)=O		inactive: -5.94%
O=C(Nc1ccc(F)cc1)c1cncs1		inactive: 9.52%
COc1ccccc1NC(=O)Cn1nnc(C(=O)NCc2ccc3c(c2)OCO3)c1N	inconclusive: 32.6 µM [inhibitor, single point]	
CCNC(=S)N(Cc1cc2cc(C)cc(C)c2[nH]c1=O)C1CCCC1	inconclusive: 25.9 µM [inhibitor, single point]	
CCc1ccc(/C=C2\SC(=S)N(CCCC(=O)N3CCCC3)C2=O)cc1	inconclusive: 25.9 µM [inhibitor, single point]	
Cc1ccc(-c2csc3ncnc(Cl)c23)cc1		inactive: -27.7%
Cc1cc(NC(=O)c2ccc3c(c2)OCO3)ccc1NC(=O)c1ccco1	inconclusive: 13 µM [inhibitor, partial curve, poor fit]	
COc1ccccc1N(CC(=O)NC1CCCCC1)S(=O)(=O)c1cccs1	inconclusive: 29.1 µM [inhibitor, single point]	
CC(=O)NCCNc1ncnc2ccc(-c3ccccc3C#N)cc12	inconclusive: 18.4 µM [inhibitor, single point]	
O=C(Nc1nnc(C2CC2)s1)c1cc([N+](=O)[O-])ccc1N1CCCCC1	inconclusive: 29.1 µM [inhibitor, partial curve]	
O=C(CCc1nc(-c2ccccc2F)no1)Nc1ccc(Oc2ccccc2)cc1	active: 23.1 µM	
CN(C)c1ccc(Sc2ccc3nc(N)nc(N)c3c2)cc1	active: 1.84 µM	
COc1cc(C(=O)N2CCN(c3cccc(C(F)(F)F)c3)CC2)ccc1OCC(=O)N1CCOCC1	active: 23.1 µM	
CC1CCN(C2(O)C(=O)Nc3ccc(Cl)cc32)CC1 (centres undefined)		inactive: 4.71%
O=C(Cn1nc(-c2ccccc2)c2ccccc2c1=O)Nc1cccc(O)c1		inactive: 0.049%
CC(=O)Nc1cccc(C(=O)NC2CCCc3c2cnn3-c2ccc(C(C)(C)C)cc2)c1 (centres undefined)	inconclusive: 13 µM [inhibitor, partial curve]	
C[C@@H]1CN([C@@H](C)CO)C(=O)CCCn2nncc2CO[C@@H]1CN(C)C(=O)Nc1cccc2ccccc12		inactive: -3.7%
COc1ccc(-c2nc3c4ccccc4ccn3c2Cc2cccc(Cl)c2)cc1OC	inconclusive: 18.4 µM [inhibitor, single point]	
Cc1nnc(C(=O)NC(C)(C)c2nc(C(=O)NCc3ccc(F)cc3)c(O)c(=O)n2C)o1		inactive: -17.6%
Cc1[nH]n(-c2ccccc2)c(=O)c1C(c1ccc(C(=O)O)cc1)c1c(C)[nH]n(-c2ccccc2)c1=O	inconclusive: 6.51 µM [inhibitor, full curve, poor fit]	
CN(C)c1ccc(-c2c3ccccc3nc3ccccc23)cc1	inconclusive: 15.8 µM [inhibitor, single point]	

Compound	Potency	activity change, negative = growth inhibition
C[C@H](CO)N1C[C@H](C)[C@@H](CN(C)S(=O)(=O)c2ccccc2)Oc2ccc(NC(=O)Nc3ccc(C(F)(F)F)cc3)cc2C1=O	active: 20.6 µM	
O=C(c1ccc(-c2ccc([N+](=O)[O-])cc2)o1)N1CCCC(C(F)(F)F)C1 (centres undefined)	inconclusive: 23.1 µM [inhibitor, single point]	
CC(C)c1ccc(NC(=O)CN(C)S(=O)(=O)c2ccc3c(c2)c(=O)n(C)c(=O)n3C)cc1	inconclusive: 13 µM [inhibitor, partial curve]	
CCN(CC(=O)Nc1ccccc1OC)C(=O)c1cc(-c2ccccc2)nn1-c1ccccc1	active: 20.6 µM	
Cc1cccc(NS(=O)(=O)c2ccc3oc(=O)c4ncn(C)c4c3c2)c1C		inactive: -4.64%
O=C(c1ccc(=O)[nH]c1)N1CCN(S(=O)(=O)c2ccccc2)CC1		inactive: 10.4%
COC(=O)Cn1c(=NC(=O)c2ccc(OC)cc2)sc2cc(OC)ccc21	inconclusive: 9.2 µM [inhibitor, partial curve]	
C=CCn1c(SCC(=O)Nc2nccs2)nnc1-c1cc2cccc(OC)c2o1	inconclusive: 18.4 µM [inhibitor, single point]	
COc1ccc([N+](=O)[O-])cc1CN1CCN(c2ncc(Cc3ccccc3)cn2)CC1	active: 20.6 µM	
Cc1cccc(NC(=O)Nc2nnc([C@H]3C[C@H](O)[C@@H](CO)O3)s2)c1	inconclusive: 29.1 µM [inhibitor, single point]	
CCOC(=O)C1=C(COC(=O)COc2ccc(C(=O)CC)cc2)NC(=O)NC1C (centres undefined)		inactive: -0.0232%
CCc1nnc(NC(=O)c2ccc3c(=O)n4c(nc3c2)CCC4)s1		inactive: -28%
Cc1ccc(CNC(=O)c2cc(Cl)cc(Cl)c2)n1C		inactive: -11.3%
COc1cccc(Oc2ccc(S(=O)(=O)N3CCCC3)cc2[N+](=O)[O-])c1		inconclusive: -30.3% [inhibitor]
Cc1ccc(Nc2c(-c3ccco3)nc3nc(C)cc(C)n23)cc1	inactive and inconclusive: 20 µM [inhibitor, single point]	
COc1ccccc1NC(=O)N1CCC(C(=O)c2ccc(Cl)cc2)CC1	inconclusive: 29.1 µM [inhibitor, single point]	
COc1ccc(C(O)c2nc(-c3ccc(C)c(C)c3)cs2)cc1 (centres undefined)	inconclusive: 18.4 µM [inhibitor, single point]	
O=C(c1ccncc1)N1CCC[C@@]2(CCN(Cc3ccccc3)C2)C1		inactive: 8.76%
O=C(CCS(=O)(=O)c1cc(Br)cc2c1N(C(=O)C1CC1)CC2)Nc1ccc(Br)cc1F		inactive: 12.1%
CCOC(=O)Cc1ccc(NC(=O)NCc2ccc3c(c2)CCN3C(=O)CC)cc1		inactive: -17.2%
CCN(CC)c1c([N+](=O)[O-])c(=O)n(CC)c2ccccc12	inconclusive: 20.6 µM [inhibitor, single point]	
CC(=O)c1cccc(NC(=O)NN2CCN(C)CC2)c1		inactive: 15.3%
O=[N+]([O-])c1ccc(-c2csc(Nc3ccccc3)n2)cc1	inconclusive: 25.1 µM [inhibitor, single point]	
